From patent US20120195900A1 (AbbVie / Abbott, published 2012)

Experiments:
human IL-12 [1] = biological target: T1, human IL-12 (human, UniProt P29459 23-219; P29460 23-328, biotinylated in the ELISA (site not stated)); test: cell-based or functional assay
T1 sequence (looked up) 1: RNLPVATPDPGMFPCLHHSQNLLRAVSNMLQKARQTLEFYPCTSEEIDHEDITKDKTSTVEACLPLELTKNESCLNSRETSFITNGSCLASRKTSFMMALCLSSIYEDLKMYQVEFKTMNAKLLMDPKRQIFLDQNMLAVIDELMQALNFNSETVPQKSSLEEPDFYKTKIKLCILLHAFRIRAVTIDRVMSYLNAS
T1 sequence (looked up) 2: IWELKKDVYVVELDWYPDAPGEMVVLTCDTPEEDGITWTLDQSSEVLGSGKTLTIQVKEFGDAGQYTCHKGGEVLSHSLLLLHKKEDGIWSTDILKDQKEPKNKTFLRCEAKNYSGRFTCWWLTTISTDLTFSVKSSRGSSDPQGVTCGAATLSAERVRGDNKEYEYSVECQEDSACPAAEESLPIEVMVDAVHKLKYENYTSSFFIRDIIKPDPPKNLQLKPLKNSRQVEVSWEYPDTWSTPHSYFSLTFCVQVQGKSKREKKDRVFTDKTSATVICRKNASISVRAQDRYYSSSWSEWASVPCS

recombinant human IL-18 = recombinant human IL-18 (human, UniProt Q14116 37-193); test: cell-based or functional assay
human IL-12 [2] = biological target: T1, human IL-12; test: ELISA, biotinylated IL-12 on streptavidin plates, anti-human IgG detection (column head: ED50)

- neutralization potency (IC50, nM), human IL-12 bioassay: IFN-γ release from PHA blast cells (human IL-12 [1]): 0.559 nM
- neutralization potency (IC50, nM), KG-1 bioassay: IFN-γ production (recombinant human IL-18): 0.29 nM
- EC50 (human IL-12 [2]): 0.66 nM
B1: TVD-Ig 001 (other)
heavy: EVTLRESGPALVKPTQTLTLTCTFSGFSLSKSVMGVSWIRQPPGKALEWLAHIYWDDDKYYNPSLKSRLTISKDTSKNQVVLTMTNMDPVDTATYYCARRGIRSAMDYWGQGTTVTVSSASTKGPEVQLVQSGTEVKKPGESLKISCKGSGYTVTSYWIGWVRQMPGKGLEWMGFIYPGDSETRYSPTFQGQVTISADKSFNTAFLQWSSLKASDTAMYYCARVGSGWYPYTFDIWGQGTMVTVSSASTKGPEVQLVQSGAEVKKPGASVKVSCKASGYTFTKYWLGWVRQAPGQGLEWMGDIYPGYDYTHYNEKFKDRVTLTTDTSTSTAYMELRSLRSDDTAVYYCARSDGSSTYWGQGTLVTVSSASTKGPSVFPLAPSSKSTSGGTAALGCLVKDYFPEPVTVSWNSGALTSGVHTFPAVLQSSGLYSLSSVVTVPSSSLGTQTYICNVNHKPSNTKVDKKV[in this place human IgG1 Fc with changes]
light: DIVMTQSPDSLAVSLGERATINCKASQSVSNDVAWYQQKPGQPPKLLIYYASNRYTGVPDRFSGSGSGTDFTLTISSLQAEDVAVYYCQQDYNSPWTFGGGTKVEIKRTVAAPEIVMTQSPATLSVSPGERATLSCRASESISSNLAWYQQKPGQAPRLFIYTASTRATDIPARFSGSGSGTEFTLTISSLQSEDFAVYYCQQYNNWPSITFGQGTRLEIKRTVAAPDVLMTQTPLSLPVTPGEPASISCTSSQNIVHSNGNTYLEWYLQKPGQSPQLLIYKVSNRFSGVPDRFSGSGSGTDFTLKISRVEAEDVGVYYCFQVSHVPYTFGGGTKVEIKRTVAAPSVFIFPPSDEQLKSGTASVVCLLNNFYPREAKVQWKVDNALQSGNSQESVTEQDSKDSTYSLSSTLTLSKADYEKHKVYACEVTHQGLSSPVTKSFNRGEC
notes: Tri-variable domain immunoglobulin (IgG-like, two heavy and two light chains) for IL-12, IL-18 and PGE2; made in HEK 293-6E cells; The labels TVD-1218PGE2 / TVD-PGE21218 of the methods paragraphs are not tied to TVD-Ig 001 / 002 in words; also called TVD001
